For the data set, the system named is ATP. Put plainly: switch fluorescence ratio, 500 uM ATP over buffer (Cy3 cluster intensity, sum of 5 cycles each) (fold (ratio)); higher = stronger signal-on switching upon ATP binding; sequences stand for … in TCGTCGGCAGCGTCAGATGTGTATAAGAGACAGTTTTTTTTTTTTTTTTTTTTTTTTT…TC. The note with it: aptamer strand: ATP DNA aptamer (quencher-CACCTGGGGGAGTATTGCGGAGGAAGG + anchor), 100 nM annealed; ATP concentration: 500 uM; one replicate. An outline of the steps: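 After annealing to 100 nM quencher-labelled ATP aptamer, Cy3-labelled switching-strand clusters on a modified Illumina MiSeq flow-cell were imaged in selection buffer. A second image followed after 15 min with 500 uM ATP at 22 °C, and five such buffer/ATP cycles were done, each separated by NaOH stripping and re-annealing. The fluorescence ratio, averaged per switch-domain sequence, is summed target-cycle over summed buffer-cycle Cy3 intensity per cluster, with clusters outside 100-1000 RFU excluded.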

Values marked as one replicate rest on one cluster of the flow cell; about a third of the high ones do not repeat.
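Note: ATP exposure 15 min at 22 °C before imaging.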

With GACACAGGTC, the switch fluorescence ratio came to 1.12.

TGGCGAGGGG: the switch fluorescence ratio was found to be 0.963.

On to GATTCTACTC, for which the switch fluorescence ratio was found to be 1.02.

For GCGGTATACT, the switch fluorescence ratio worked out at 1.32.

For the sequence GCACTCCTCT, the switch fluorescence ratio was 1.07.

On to GAAACGGTCT, for which the switch fluorescence ratio was 0.987.

On to GGTGTCGCAC, for which the switch fluorescence ratio was determined as 0.997.

With GGGCTGGCCT, the switch fluorescence ratio was 1.01.

With TAAGTGGCGT, the switch fluorescence ratio was found to be 0.969.

With GCCTTCCATC, the switch fluorescence ratio was found to be 2.14.

TCTTGCCACG: the switch fluorescence ratio turned out to be 1.01.

As for TCCACTGGCA, the switch fluorescence ratio was 1.19.

For AACATTGGGT, the switch fluorescence ratio was 1.02.

As for GTCCTTGCAT, the switch fluorescence ratio is 1.2.

AGTGGTTGAT: the switch fluorescence ratio turned out to be 0.976.

Turning to AAACCTCACT, the switch fluorescence ratio came to 1.32.

Regarding GTCGTGGGGG, the switch fluorescence ratio is 0.989.

In the case of TGTCCCTGTA, the switch fluorescence ratio is 0.955.

With AATCCATGAC, the switch fluorescence ratio worked out at 1.07.

For the sequence TTGCATGTGG, the switch fluorescence ratio is 0.984.

As for CTGATCGGAT, the switch fluorescence ratio is 0.991.

Turning to AGCGCTACCG, the switch fluorescence ratio was determined as 1.01.

For the sequence ACCCGGCTAG, the switch fluorescence ratio was 1.03.

As for CGCTCATCTC, the switch fluorescence ratio came to 1.41.

As to AGACGTATAA, the switch fluorescence ratio is 1.02.

With CATAGATATG, the switch fluorescence ratio was found to be 0.969.

AGCTGGGGCA: the switch fluorescence ratio came to 1.

Consider GGGGTTTCAT, for which the switch fluorescence ratio was determined as 0.96.

On to CGGTTTTGAC, for which the switch fluorescence ratio came out at 1.02.

With CGACTCGGCC, the switch fluorescence ratio was determined as 1.15.

With TCTTGCTATG, the switch fluorescence ratio worked out at 1.03.

AGTTTGCTAA: the switch fluorescence ratio came to 1.01.

GTACTTTTGG: the switch fluorescence ratio came out at 0.969.

Regarding TGCTGAGGGT, the switch fluorescence ratio was found to be 1.

Consider CGAGGTAGAC, for which the switch fluorescence ratio was determined as 1.5.

Regarding TATGGCTGCA, the switch fluorescence ratio was 1.02.

Consider GGCAGAGACT, for which the switch fluorescence ratio amounted to 1.01.

ACTGTTTACC: the switch fluorescence ratio was 1.07.

Consider TAGGGTGAAT, for which the switch fluorescence ratio worked out at 0.971.

Take TGGAGGGTTA: the switch fluorescence ratio was 0.99.

For CATGCCTATG, the switch fluorescence ratio came to 1.01.

With GGTTAGATGC, the switch fluorescence ratio is 1.07.

CGGTTTCAT: the switch fluorescence ratio was 0.959.

On to CTGCTCGGAG, for which the switch fluorescence ratio came out at 1.05.

On to AAGTGTGC, for which the switch fluorescence ratio worked out at 0.883.

On to TACACATGGC, for which the switch fluorescence ratio was 1.01.

In the case of TGCATACATA, the switch fluorescence ratio stood at 1.

Take CACACAAACC: the switch fluorescence ratio is 1.14.

Turning to CGGGGGTTCC, the switch fluorescence ratio turned out to be 1.02.

On to CCCATGAAAG, for which the switch fluorescence ratio is 0.959.

With CAACTTAACG, the switch fluorescence ratio worked out at 1.06.

Consider CACGTCTGAG, for which the switch fluorescence ratio is 1.04.

For the sequence AGCTGGTCCC, the switch fluorescence ratio is 1.11.

TAGAAGGATA: the switch fluorescence ratio amounted to 0.947.

For the sequence CCAGGAGGCA, the switch fluorescence ratio was 1.07.

Turning to AGTGGAAAAG, the switch fluorescence ratio is 1.01.

Take AAAAGGTGTT: the switch fluorescence ratio was 1.

For TTTTAATTGC, the switch fluorescence ratio was determined as 1.02.

In the case of TTAAGTCCCA, the switch fluorescence ratio was 1.01.

As to TGCCGCGAGC, the switch fluorescence ratio came out at 1.45.

Take GAGCTCGGAA: the switch fluorescence ratio amounted to 0.976.

As for TGTTCCGGTA, the switch fluorescence ratio is 1.08.

Take ATAGGTTGGC: the switch fluorescence ratio stood at 0.966.

For GTAGGCGCGA, the switch fluorescence ratio is 1.05.

In the case of TGAAACACGT, the switch fluorescence ratio was found to be 0.976.

In the case of GTCGTACTC, the switch fluorescence ratio came out at 0.961.

As for GTTTGCACGC, the switch fluorescence ratio came out at 1.06.

Turning to ACCATGGGAC, the switch fluorescence ratio came out at 1.09.

With AGCGGCGGTC, the switch fluorescence ratio was determined as 1.04.

In the case of GTCTGAAGTT, the switch fluorescence ratio turned out to be 0.922.

With TCAGAGCT, the switch fluorescence ratio was found to be 0.98.

As for AAGTTTAGAT, the switch fluorescence ratio is 1.01.

For ATTATTGTT, the switch fluorescence ratio worked out at 0.987.

Turning to TTGAATGGT, the switch fluorescence ratio is 0.975.

With ACAAAGTTTT, the switch fluorescence ratio turned out to be 1.1.

Consider ATTTTTAGGT, for which the switch fluorescence ratio was 1.01.

In the case of ATCAGCATCT, the switch fluorescence ratio turned out to be 1.08.

Turning to CCCATTACTG, the switch fluorescence ratio came out at 1.34.

CGCTAATCTT: the switch fluorescence ratio worked out at 1.08.

GCTCCAATAG: the switch fluorescence ratio stood at 5.6.

For TGCTTGATAT, the switch fluorescence ratio was found to be 0.995.

Turning to TGGGCCAGAG, the switch fluorescence ratio was determined as 1.05.

For GGACGGATGG, the switch fluorescence ratio worked out at 0.98.

Turning to CGATTGCCGA, the switch fluorescence ratio came out at 0.983.

Take CGCGGTTTGG: the switch fluorescence ratio was 1.03.

As for TAGACGCATA, the switch fluorescence ratio was determined as 2.77.

Consider CTATCGGGCC, for which the switch fluorescence ratio is 1.02.

Regarding CTGTAGGAGA, the switch fluorescence ratio came to 1.01.

Take GGGTCACAGT: the switch fluorescence ratio came to 1.01.

Regarding TATTGGACAC, the switch fluorescence ratio worked out at 1.04.

Regarding TATCGGCGTC, the switch fluorescence ratio amounted to 1.04.

As to AGAGATGAGT, the switch fluorescence ratio was 1.

With GTACTTACGT, the switch fluorescence ratio amounted to 1.33.

Turning to GGGTGGGCAA, the switch fluorescence ratio stood at 1.07.

Consider CCTTTGACAA, for which the switch fluorescence ratio is 4.07.

With ATTTCTGCTG, the switch fluorescence ratio is 0.916.

Turning to TAGCGTATGT, the switch fluorescence ratio turned out to be 1.02.

Turning to TACTTTTGTG, the switch fluorescence ratio came out at 1.

On to TGCGAGCGGC, for which the switch fluorescence ratio was 1.04.

Consider AAGGGTTCGT, for which the switch fluorescence ratio is 0.98.

Take GGTTTTTCAT: the switch fluorescence ratio is 0.95.

Regarding CTAAGCGAGC, the switch fluorescence ratio is 0.999.

In the case of CTGTGGACGC, the switch fluorescence ratio worked out at 1.06.

As to AAACTTGCGG, the switch fluorescence ratio came out at 1.05.

As for CAATTGCGCG, the switch fluorescence ratio was 0.98.

CCGGAAGTGT: the switch fluorescence ratio came to 1.07.

Turning to TTATTGAGTG, the switch fluorescence ratio was found to be 0.92.

As for GCTTTCAT, the switch fluorescence ratio turned out to be 1.04.

For GATTAAGCG, the switch fluorescence ratio was 1.

Turning to CCCGGAGCCT, the switch fluorescence ratio came to 1.94.

In the case of TCCAGATGCT, the switch fluorescence ratio is 1.01.

On to GAATATATGA, for which the switch fluorescence ratio came to 1.03.

As for TACGCGGGGA, the switch fluorescence ratio stood at 1.03.

Regarding CACATAATGG, the switch fluorescence ratio worked out at 0.981.

With GATCTAGGGG, the switch fluorescence ratio amounted to 0.975.

With AACGAACAGA, the switch fluorescence ratio turned out to be 1.24.

For the sequence TCGTCGGGCG, the switch fluorescence ratio worked out at 0.991.

Regarding TCGTGGTATA, the switch fluorescence ratio amounted to 0.964.

For AACGATTAGT, the switch fluorescence ratio is 0.979.

Take AACGATTCT: the switch fluorescence ratio is 0.998.

The record behind these values is the supplement of paper PMC10126150.
